Data on 54 sequences can be found in PMC7819943, “Rice protein-binding microarrays: a tool to detect cis-acting elements near promoter regions in rice”.

Some of the results follow.

The target of the test is T1, OsWOX13 (Oryza sativa, UniProt Q5QMM3 1-267).
T1 sequence: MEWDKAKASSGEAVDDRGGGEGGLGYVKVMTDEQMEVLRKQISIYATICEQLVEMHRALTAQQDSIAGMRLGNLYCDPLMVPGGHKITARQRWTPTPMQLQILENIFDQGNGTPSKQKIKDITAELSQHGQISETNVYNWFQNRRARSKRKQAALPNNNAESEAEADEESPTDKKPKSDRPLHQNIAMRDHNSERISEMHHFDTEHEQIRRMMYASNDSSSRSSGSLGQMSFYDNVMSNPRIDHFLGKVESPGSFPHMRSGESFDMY
Kind of test: protein-binding microarray (RPBM); PBS, 2% BSA, 51.3 ng/ul salmon testes DNA, 50 uM zinc acetate, 200 nM TF, 25 C, 1 h; high values mean tight binding. The note with it: protein: recombinant; tags: N-terminal polyhistidine and DsRed monomer fusion (pET32a); label: CyDye5-dUTP incorporated in the synthesized complementary strand; 3' TTTTT single-stranded linker to array surface; dsDNA, one strand shown. An outline of the steps: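 Polyhistidine-tagged DsRed fusions of transcription factors, joined at the N-terminus, were expressed in E. coli BL21-CodonPlus and isolated on Ni–NTA. They were incubated at 200 nM for 1 h at 25 °C on a custom Agilent array, double-stranded and BSA-blocked, in PBS with 2% BSA, salmon testes DNA and 50 µM zinc acetate. The binding signal is per-feature fluorescence intensity (arbitrary units) read on an Axon 4000B scanner after washing.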
Turning to “TGGTTTTCCGTTAATTTGCCTATGATCGTTTCCTGCATGCCGGAGTCACCTAGTGCAG”, the binding signal is 4670 fluorescence intensity (a.u.). As for “GACTCAGGGTAAATTATTCAATCCTATTTTAACTTATACTCGGAGTCACCTAGTGCAG”, the figure is 4480 fluorescence intensity (a.u.).

“AGTATTGTTTTCTCGCTGTCTCTATCCAAATCTTTGAAAACGGAGTCACCTAGTGCAG”: the binding signal is 3390 fluorescence intensity (a.u.). As for “ATCTAAATTGGTCATGTTCTCTGATTAGTGAGTGCCCTGCCGGAGTCACCTAGTGCAG”, the figure is 37800 fluorescence intensity (a.u.); as for “CAAATTGTACCAATTAAGTCAATCCTAACTTCTATACCAACGGAGTCACCTAGTGCAG”, 18200 fluorescence intensity (a.u.).

For “CCTTAAAGGTAATTGTTGGGGAATGACATCAAATTAGCTTCGGAGTCACCTAGTGCAG”, the binding signal was 12700 fluorescence intensity (a.u.). As for “GATGGCAATCATAGAGCCATCAGGTAACTGTGCCTTGTAGCGGAGTCACCTAGTGCAG”, the figure is 3510 fluorescence intensity (a.u.); as for “TTAAATTTACTTTTCATTTTAAGGCAAAATTTGCTATATGCGGAGTCACCTAGTGCAG”, 12800 fluorescence intensity (a.u.); as for “ACGTAATTATAATTTATTTTGTTATGAGTTGGTTTATCACCGGAGTCACCTAGTGCAG”, 62600 fluorescence intensity (a.u.). As for “CAAATTGACCCTTTTGGAAAACTTATTTCGAAACTAACCCCGGAGTCACCTAGTGCAG”, the figure is 4690 fluorescence intensity (a.u.); as for “ACATGAGCTAATTTTGATATAAATTGGTTTTCCTTGACCACGGAGTCACCTAGTGCAG”, 9520 fluorescence intensity (a.u.). As for “CAAATTCTAATCAATTTCGTATTTACTCCGTCTACTACTACGGAGTCACCTAGTGCAG”, the figure is 9400 fluorescence intensity (a.u.); as for “TGCTTGCCTCAAGTTGATTGCCAAATCGAACCATGTTATTCGGAGTCACCTAGTGCAG”, 4940 fluorescence intensity (a.u.); as for “TGTCAGAAGTAAATTTGACTGAGATTAACAGAATGCCACTCGGAGTCACCTAGTGCAG”, 17100 fluorescence intensity (a.u.).

On to “TTATAAAATGAATGGAATAATAACAAACTCAATGGCAATTCGGAGTCACCTAGTGCAG”, for which the binding signal was 3410 fluorescence intensity (a.u.). Regarding “CTATAATATATCTAAATTACTTTTAGGCTTTATTGAATTTCGGAGTCACCTAGTGCAG”, the binding signal was 6430 fluorescence intensity (a.u.). As for “CGGTAATGGACAGTACAACTACCAGTACAAGATCCGGGTGCGGAGTCACCTAGTGCAG”, the figure is 13500 fluorescence intensity (a.u.). As for “AGATGGATGACTAAATTGCACCCACCTTACAGGTTGTGGTCGGAGTCACCTAGTGCAG”, the figure is 3170 fluorescence intensity (a.u.); as for “TTTGATTATAGTACATATCATGTCCAAACTCTCAACGACCCGGAGTCACCTAGTGCAG”, 17600 fluorescence intensity (a.u.). As for “GTGCAATTAAGCGTGTAGGGATTGGTTGGTTTAGCTCAAGCGGAGTCACCTAGTGCAG”, the figure is 4090 fluorescence intensity (a.u.); as for “TACACTATAATTACACTCTGTAAGTAGTATGTAACTGAGTCGGAGTCACCTAGTGCAG”, 5500 fluorescence intensity (a.u.). With “TTGATGGATGGGAAATCATTTCCCCTATCCCATTAGCCAACGGAGTCACCTAGTGCAG”, the binding signal was 14400 fluorescence intensity (a.u.).

On to “GATATAATTAAGATATGATATATGCAGGAAGTAATAGTAACGGAGTCACCTAGTGCAG”, for which the binding signal is 4660 fluorescence intensity (a.u.). For the sequence “ACCGTTGCAATTACTTATTCGTTTCCTCCTTTCAAAATATCGGAGTCACCTAGTGCAG”, the binding signal is 3840 fluorescence intensity (a.u.). Consider “GCACCTGTGATTATGTGAAGACGAAATCTTCAACCATGGACGGAGTCACCTAGTGCAG”, for which the binding signal was 11800 fluorescence intensity (a.u.). On to “CAAAGGATTGTGCACAGTAATTGACAAGACATTTAATCAGCGGAGTCACCTAGTGCAG”, for which the binding signal is 21700 fluorescence intensity (a.u.).

Take “ATGATGGTCAAATAATAGAATTAGATGCACCGGTCATATGCGGAGTCACCTAGTGCAG”: the binding signal was 3850 fluorescence intensity (a.u.). As for “AGTACTACCACTCAATCACTCATGGTGAATAAAAGACTTACGGAGTCACCTAGTGCAG”, the figure is 4760 fluorescence intensity (a.u.); as for “AAACCAATTTCAATTACCAATTACTCCCTAATATTAGCTACGGAGTCACCTAGTGCAG”, 18900 fluorescence intensity (a.u.); as for “CTCTGATAGATTGCGACCTTCTTGTTGTTTAACAACGTTACGGAGTCACCTAGTGCAG”, 54000 fluorescence intensity (a.u.). Consider “AAAATTTTAGTTATTAACAACAAATAAAACTGGTTTGCCACGGAGTCACCTAGTGCAG”, for which the binding signal is 3510 fluorescence intensity (a.u.). Take “ATATGATGATCAATATTGCAGAAACAAACACATCAGATGACGGAGTCACCTAGTGCAG”: the binding signal was 3570 fluorescence intensity (a.u.). As for “TTTGATTAGGGCCTCTTGGGTCATAACAGGAGGGTTTTAACGGAGTCACCTAGTGCAG”, the figure is 9310 fluorescence intensity (a.u.); as for “TCGTAAATTTAACTTCAAAAGTTAGATATAGAGCTTTACTCGGAGTCACCTAGTGCAG”, 8090 fluorescence intensity (a.u.); as for “ACAAATTTGACTATTTTCAGTTAACCCTTACCCAACAATTCGGAGTCACCTAGTGCAG”, 14900 fluorescence intensity (a.u.). As for “TATGGTTTAAATTGGCATCGGGAGAATAAGAGAGAGAGAGCGGAGTCACCTAGTGCAG”, the figure is 5580 fluorescence intensity (a.u.); as for “ATTGTATAGATTGTGACTAATTTGTGAGATGAATCTTTTACGGAGTCACCTAGTGCAG”, 15000 fluorescence intensity (a.u.). Take “TGAACTGATTTATCCAATGGTATAATCTTCTTAATTACGTCGGAGTCACCTAGTGCAG”: the binding signal was 17700 fluorescence intensity (a.u.). As for “ATGACTTGAAATTGAATTATCAGGATGCTAACATAACAGACGGAGTCACCTAGTGCAG”, the figure is 3940 fluorescence intensity (a.u.); as for “CTTGCACGACACATTCAAATTAAATTTGACTTGCACGATACGGAGTCACCTAGTGCAG”, 3330 fluorescence intensity (a.u.). As for “ACGAATCTTTTGAGTCTAATTACACCATGATTTTGACAATCGGAGTCACCTAGTGCAG”, the figure is 3770 fluorescence intensity (a.u.); as for “TCCTGTGATGGACTTGTGGTGTCCATCTTTTACTGAATAGCGGAGTCACCTAGTGCAG”, 3730 fluorescence intensity (a.u.); as for “GTCGTTATAAATTAACTAACTACTATTTTAACACAAATTTCGGAGTCACCTAGTGCAG”, 4120 fluorescence intensity (a.u.). As for “TAGAGGTGATGGAAATTGATAGGGAATTTAGTTGGAGATTCGGAGTCACCTAGTGCAG”, the figure is 28500 fluorescence intensity (a.u.). Take “GTGAGCCATTAGCGCATGATTAATTGAGTATTAACTATTTCGGAGTCACCTAGTGCAG”: the binding signal is 4390 fluorescence intensity (a.u.). As for “ATTGACAAGATAGATTGTTGCCCAATTTTCGAAGATGCTCCGGAGTCACCTAGTGCAG”, the figure is 42000 fluorescence intensity (a.u.); as for “GGCAAAATTACACTGTATTACAGACCGTTAGTAACGTACACGGAGTCACCTAGTGCAG”, 6070 fluorescence intensity (a.u.); as for “TTATAATTATTTTAGGACAGATGTAGTAAGTATCAAAACACGGAGTCACCTAGTGCAG”, 9510 fluorescence intensity (a.u.). As for “GTGATAAACTATACTTATTAATTATGCAGGTAATATGTAACGGAGTCACCTAGTGCAG”, the figure is 5550 fluorescence intensity (a.u.).

For the sequence “ATTAATGTAAATTAAATCCAACAGAATTGCTCTTTTACATCGGAGTCACCTAGTGCAG”, the binding signal was 23600 fluorescence intensity (a.u.). As for “GATGATGACGACAGTGACGCATTGGAAGATACATTCGCCTCGGAGTCACCTAGTGCAG”, the figure is 5530 fluorescence intensity (a.u.); as for “ATTTTAAACTCGACGACAAATTGACCGAGTCCCATCATTCCGGAGTCACCTAGTGCAG”, 4510 fluorescence intensity (a.u.).

“AGTATAATATTAATTTATTGCACTTTCTGCTAGTTGCCTTCGGAGTCACCTAGTGCAG”: the binding signal is 11400 fluorescence intensity (a.u.).

Turning to “AATGGTACTGATTAGATTATCTCTTTTCCTGAATTCTATGCGGAGTCACCTAGTGCAG”, the binding signal was 23500 fluorescence intensity (a.u.).
